Experimental data: paper PMC4336329 (PLoS ONE, 2015)
The whole screen tested about 310,000 compounds, of which about 2,200 (0.71%) showed an effect of 50% or more. Effects have a minus sign here. The list shows a part of the results.

The compounds below were run against human ether-à-go-go-related gene (hERG) potassium channel (human, UniProt Q12809) (assay: primary screen, population patch clamp on CHO cells stably expressing hERG).
Chain of human ether-à-go-go-related gene (hERG) potassium channel (Q12809 whole entry, looked up): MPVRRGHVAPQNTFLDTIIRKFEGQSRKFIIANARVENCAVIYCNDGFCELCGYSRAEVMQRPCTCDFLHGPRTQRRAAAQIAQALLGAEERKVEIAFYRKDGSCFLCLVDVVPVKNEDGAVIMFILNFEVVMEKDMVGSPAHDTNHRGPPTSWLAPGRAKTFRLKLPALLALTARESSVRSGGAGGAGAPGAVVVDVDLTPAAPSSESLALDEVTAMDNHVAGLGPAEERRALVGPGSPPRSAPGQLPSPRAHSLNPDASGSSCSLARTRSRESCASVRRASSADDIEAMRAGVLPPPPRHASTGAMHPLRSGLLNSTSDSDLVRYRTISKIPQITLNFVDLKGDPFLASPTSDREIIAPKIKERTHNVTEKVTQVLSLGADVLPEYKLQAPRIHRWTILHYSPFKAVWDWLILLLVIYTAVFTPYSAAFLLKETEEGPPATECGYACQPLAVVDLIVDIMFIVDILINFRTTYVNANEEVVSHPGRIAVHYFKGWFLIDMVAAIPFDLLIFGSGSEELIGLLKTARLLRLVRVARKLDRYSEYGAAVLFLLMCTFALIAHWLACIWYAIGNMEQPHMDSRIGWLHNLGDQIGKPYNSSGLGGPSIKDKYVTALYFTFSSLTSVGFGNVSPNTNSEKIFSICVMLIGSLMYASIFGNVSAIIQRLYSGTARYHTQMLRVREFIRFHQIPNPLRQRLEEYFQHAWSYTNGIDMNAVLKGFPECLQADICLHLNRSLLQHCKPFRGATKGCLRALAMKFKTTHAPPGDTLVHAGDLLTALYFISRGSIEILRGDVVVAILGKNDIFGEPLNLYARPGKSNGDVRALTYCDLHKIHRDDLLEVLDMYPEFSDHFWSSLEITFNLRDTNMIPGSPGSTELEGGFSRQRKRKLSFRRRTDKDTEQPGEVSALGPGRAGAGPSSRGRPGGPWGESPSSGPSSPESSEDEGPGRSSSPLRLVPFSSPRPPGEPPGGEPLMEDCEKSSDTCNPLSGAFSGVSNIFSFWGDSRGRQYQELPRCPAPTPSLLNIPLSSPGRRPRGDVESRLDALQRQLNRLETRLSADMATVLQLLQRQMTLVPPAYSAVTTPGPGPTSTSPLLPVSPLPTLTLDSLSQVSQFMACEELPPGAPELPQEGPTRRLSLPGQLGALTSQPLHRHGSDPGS
With `O=C(c1c(F)cccc1F)N1CCN(c2cccc(C(F)(F)F)c2)CC1` the “hERG current change (%, negative = inhibition) at 1uM” value was 15.4%.
In the case of `CCOc1ccc(OCc2ccc(C(=O)N3CCCC(C)C3)cc2)cc1` (centres unmarked), the “hERG current change (%, negative = inhibition) at 1uM” value is reported as -7.05%.
With `COc1ccccc1Nc1nc(N)nc(CN2CCc3ccccc3C2)n1` the “hERG current change (%, negative = inhibition) at 1uM” value was -2.7%.
For `COCCOC(=O)C1=C(C)NC(=O)NC1c1cc2c(cc1Br)OCO2` (centres unmarked), the “hERG current change (%, negative = inhibition) at 1uM” value was 15.1%.
For `COC(=O)c1scc(C)c1N/N=C(\C)c1ccc(F)cc1`, the “hERG current change (%, negative = inhibition) at 1uM” value was -7.28%.
For `COc1cc(CNC(C)c2ccccc2)cc(Br)c1OCc1ccc(F)cc1` (centres unmarked), the “hERG current change (%, negative = inhibition) at 1uM” value was 15%.
`COc1cccc(NC(=S)NNC(=O)Cn2nc(C(F)(F)F)cc2C)c1` was tested, and the “hERG current change (%, negative = inhibition) at 1uM” value was 9.84%.
In the case of `COc1cc2ccccc2cc1C(=O)N1CCCC(C(F)(F)F)C1` (centres unmarked), the “hERG current change (%, negative = inhibition) at 1uM” value is reported as -0.177%.
`O=C(/C=C\c1ccc2c(c1)OCO2)NC1(C(=O)Nc2ccc3c(c2)OCCO3)CCCCC1` was tested, and the “hERG current change (%, negative = inhibition) at 1uM” value was 10.1%.
For `COCCNC(=O)c1onc(CSc2cc(C)ccc2C)c1C(=O)O`, the “hERG current change (%, negative = inhibition) at 1uM” value was 8.8%.
With `CN1C(=O)C(CC(=O)NCCc2ccccc2)N(NC(=O)c2cccc(F)c2)C1=S` (centres unmarked) the “hERG current change (%, negative = inhibition) at 1uM” value was 7%.
In the case of `COc1cc(NS(=O)(=O)c2ccc3c(c2)NC(=O)CO3)cc(OC)c1`, the “hERG current change (%, negative = inhibition) at 1uM” value is reported as 9.41%.
`COc1ccc(C(=O)NCCNc2ccc([N+](=O)[O-])cc2)cc1` was tested, and the “hERG current change (%, negative = inhibition) at 1uM” value was -5.45%.
In the case of `CC(C)CCNC(=O)CN(Cc1cccs1)C(=O)CCC(=O)Nc1nccs1`, the “hERG current change (%, negative = inhibition) at 1uM” value is reported as 6.84%.
In the case of `COC(C(=O)Nc1ccc(NC(=O)C(OC)c2ccccc2)cc1)c1ccccc1` (centres unmarked), the “hERG current change (%, negative = inhibition) at 1uM” value is reported as 13.3%.
In the case of `Cc1ccc(C(=O)N2CCCC(Nc3ccc(C)c(C)c3)C2)c(=O)[nH]1` (centres unmarked), the “hERG current change (%, negative = inhibition) at 1uM” value is reported as -9.19%.
For `CCOC(=O)c1cc2ccccc2nc1C`, the “hERG current change (%, negative = inhibition) at 1uM” value was 9.54%.
With `O=C(O)CCC(=O)Nc1cccc(C(=O)Nc2cccc(Cl)c2)c1` the “hERG current change (%, negative = inhibition) at 1uM” value was 3.56%.
In the case of `NC(=O)c1nn(-c2ccccc2)nc1N`, the “hERG current change (%, negative = inhibition) at 1uM” value is reported as 8.29%.
`Cc1ccc(-c2noc(CCC(=O)Nc3ccccc3C)n2)cc1` was tested, and the “hERG current change (%, negative = inhibition) at 1uM” value was 15.2%.
In the case of `CC(C)OCCCN(C)C1CCN(S(=O)(=O)c2ccc(-c3cc(C(F)(F)F)no3)s2)CC1`, the “hERG current change (%, negative = inhibition) at 1uM” value is reported as 7.62%.
`CCN1CCN(Cc2cc(Br)cc(Br)c2O)CC1` was tested, and the “hERG current change (%, negative = inhibition) at 1uM” value was -5.4%.
`CC1CCN(C(=S)c2ccc(-c3ccc(Cl)cc3Cl)o2)CC1` was tested, and the “hERG current change (%, negative = inhibition) at 1uM” value was 7.44%.
`CCOc1ccc(OCc2ccc(C(=O)N3CCCCC3)o2)cc1` was tested, and the “hERG current change (%, negative = inhibition) at 1uM” value was 12%.
`COc1ccc(NC(=S)N2c3ccccc3CC2C)cc1OC` (centres unmarked) was tested, and the “hERG current change (%, negative = inhibition) at 1uM” value was 6.29%.
With `COC(=O)c1ccc(Oc2nc3ccccc3n3c(C)nnc23)cc1` the “hERG current change (%, negative = inhibition) at 1uM” value was 6.24%.
In the case of `Cc1ccc(NC(=O)CNC(=O)c2ccco2)cc1Cl`, the “hERG current change (%, negative = inhibition) at 1uM” value is reported as 20.4%.
For `CCOC(=O)C(=CNc1cc(C)ccc1-n1cccc1)C(=O)OCC`, the “hERG current change (%, negative = inhibition) at 1uM” value was 13.5%.
For `Cn1cnnc1Sc1ccc(C(=O)NCCC23CC4CC(CC(C4)C2)C3)cc1[N+](=O)[O-]`, the “hERG current change (%, negative = inhibition) at 1uM” value was 8.9%.
For `Cc1ccc(C)c2[nH]c(=O)c(CCNC(=O)c3ccc(S(=O)(=O)N4CCCC4)cc3)cc12`, the “hERG current change (%, negative = inhibition) at 1uM” value was 0.21%.
`Cc1csc(NC(=O)CCCC(=O)c2ccccc2)n1` was tested, and the “hERG current change (%, negative = inhibition) at 1uM” value was 8.01%.
`COc1ccc(-c2ccc(/C=N/NC(=O)Cc3nnc(N)s3)o2)cc1Cl` was tested, and the “hERG current change (%, negative = inhibition) at 1uM” value was 12.2%.
`COc1ccc(Cn2c(C3CC3)nc3ccc(NC(=O)C4CC4)cc3c2=O)cc1` was tested, and the “hERG current change (%, negative = inhibition) at 1uM” value was 8.33%.
For `Nc1c(S(=O)(=O)c2ccccc2)c2nc3ccccc3nc2n1C1CC1`, the “hERG current change (%, negative = inhibition) at 1uM” value was 5.09%.
With `CCn1c(=O)c(C(=O)CN(C)Cc2cccc(OC)c2OC)c(N)n(Cc2ccccc2)c1=O` the “hERG current change (%, negative = inhibition) at 1uM” value was -18.3%.
For `Cc1csc(=O)n1CC(=O)OCC(=O)NCc1ccccc1`, the “hERG current change (%, negative = inhibition) at 1uM” value was 6.17%.
`CC(=O)OCC[N+](C)(C)C.[Br-]` was tested, and the “hERG current change (%, negative = inhibition) at 1uM” value was 10.7%.
`O=C(Nc1ccncc1)c1ccc([N+](=O)[O-])cc1Cl` was tested, and the “hERG current change (%, negative = inhibition) at 1uM” value was 7.44%.
`Cc1c(-c2ccccc2)c(=O)oc2ccc(O)cc12` was tested, and the “hERG current change (%, negative = inhibition) at 1uM” value was 15.4%.
For `COc1ccccc1C(CNC(=O)c1cccc(S(=O)(=O)Nc2ccc(C)cc2)c1)N1CCCC1` (centres unmarked), the “hERG current change (%, negative = inhibition) at 1uM” value was 2.59%.
For `CCOc1ncccc1C(=O)OCC(=O)c1c[nH]c2ccccc12`, the “hERG current change (%, negative = inhibition) at 1uM” value was 3.73%.
For `Cc1nnc(SCC(=O)NNC(=O)c2ccco2)n1-c1ccccc1`, the “hERG current change (%, negative = inhibition) at 1uM” value was 12.1%.
`CCN(CCO)C(=O)c1ccc2oc(Cc3ccc(Cl)cc3)nc2c1` was tested, and the “hERG current change (%, negative = inhibition) at 1uM” value was 10.9%.
For `Cc1ccc([N+](=O)[O-])cc1N=C1C(=O)Nc2ccccc21`, the “hERG current change (%, negative = inhibition) at 1uM” value was 7.89%.
In the case of `Cc1ccc(S(=O)(=O)N2CCC(C(=O)NNC(=O)c3ccccc3O)CC2)cc1C`, the “hERG current change (%, negative = inhibition) at 1uM” value is reported as 5.25%.
For `CC(C)(C)OC(=O)[C@H](Cc1ccccc1)NC(=O)c1nc[nH]c1C(=O)NC1CCN(C(=O)OC(C)(C)C)CC1`, the “hERG current change (%, negative = inhibition) at 1uM” value was 12.5%.
For `CCN1CCN(C(=O)c2cc3nc(-c4ccccc4)cc(C(F)(F)F)n3n2)CC1`, the “hERG current change (%, negative = inhibition) at 1uM” value was 5.33%.
With `CC(C)Nc1ccc(C(CC(N)=O)NC(=O)Cc2ccc(Br)cc2)cc1[N+](=O)[O-]` (centres unmarked) the “hERG current change (%, negative = inhibition) at 1uM” value was 1.18%.
In the case of `CC1CCCCN1C(=O)NC1CC(=O)N(c2ccc3c(c2)OCCO3)C1` (centres unmarked), the “hERG current change (%, negative = inhibition) at 1uM” value is reported as 14.9%.
In the case of `Cc1ccc(Cl)cc1N1CCN(C(=O)CSc2ccsc2[N+](=O)[O-])CC1`, the “hERG current change (%, negative = inhibition) at 1uM” value is reported as -1.03%.
`CN(C)/C=c1\sc2c(C#N)cc(C(=O)c3ccc(Br)cc3)n2c1=O` was tested, and the “hERG current change (%, negative = inhibition) at 1uM” value was 3.43%.
For `C=CCN(CC=C)Cc1c(O)ccc2c1oc(=O)c1ccccc12`, the “hERG current change (%, negative = inhibition) at 1uM” value was -17.5%.
With `Cc1ccc(-n2nc3c(=O)n(CC(=O)c4ccc(F)cc4)nc(C)c3c2C)cc1` the “hERG current change (%, negative = inhibition) at 1uM” value was -4.69%.
For `CCOC(=O)c1sc(NC(=O)C(C)Sc2nc(N)cc(=O)[nH]2)nc1C` (centres unmarked), the “hERG current change (%, negative = inhibition) at 1uM” value was 14%.
For `CCCNCc1cc(OCC)c(OCC(N)=O)cc1Br`, the “hERG current change (%, negative = inhibition) at 1uM” value was 9.02%.
For `COc1ccc(OC)c(S(=O)(=O)NCCCn2ccnc2)c1`, the “hERG current change (%, negative = inhibition) at 1uM” value was 13.2%.
